This is one part of the list. Sequences were assembled here from the parent chain. Values near 0.05 are background.
B1: TEV protease; numbered along this chain (parent)
chain: MGESLFKGPRDYNPISSSICHLTNESDGHTTSLYGIGFGPFIITNKHLFRRNNGTLVVQSLHGVFKVKDTTTLQQHLVDGRDMIIIRMPKDFPPFPQKLKFREPQREERICLVTTNFQTKSMSSMVSDTSCTFPSGDGIFWKHWIQTKDGQCGSPLVSTRDGFIVGIHSASNFTNTNNYFTSVPKNFMELLTNQEAQQWVSGWRLNADSVLWGGHKVFMVKPEEPFQPVKEATQL

Variants of: B1
Assay: raw area under fraction-flipped curve 0-4 h after induction (AUC4h, not background-subtracted), DNA-recorder readout of cleavage of the substrate (dimensionless); higher = more cleavage of the substrate by the protease variant
Details: temperature: 34 °C; time window: 0-4 h after rhamnose induction
Protocol: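 In vivo DNA recorder in E. coli TOP10(DE3) ΔrhaA at 34 °C. Each TEVp single-site mutant (parent TEVp 0) is paired with a single-site variant of the 7-mer TEVs (canonical ENLYFQ|S). The substrate sits between flexible linkers in a Bxb1-sfGFP-TEVs-SsrA fusion, so cleavage stabilises Bxb1 and speeds flipping of a recombination array, read by NGS. The value is the raw area under the fraction-flipped curve over 0-4 h after rhamnose induction (AUC4h), with ≥20 reads per time point. It is not background-subtracted; inactive controls average about 0.047.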
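Also: Bxb1 expression induced with 0.2% (w/v) L-rhamnose at OD600 near 0.5, cultures sampled hourly, flipped fraction per protease–substrate barcode pair counted by paired-end Illumina sequencing.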

Row | Variant | area with substrate ENCYFQS | area with substrate ENDYFQS | area with substrate ENEYFQS | area with substrate ENGYFQS | area with substrate ENHYFQS | area with substrate ENIYFQS | area with substrate ENMYFQS | area with substrate ENNYFQS | area with substrate ENRYFQS | area with substrate ENSYFQS | area with substrate ENFYFQS | area with substrate ENKYFQS | area with substrate ENPYFQS | area with substrate ENQYFQS | area with substrate ENTYFQS | area with substrate ENVYFQS | area with substrate ENWYFQS | area with substrate ENYYFQS | area with substrate ENAYFQS
1 | I139K | 0.051 | 0.0362 | 0.0513 | 0.0634 | 0.065 | 0.121 | 0.0644 | 0.0586 | 0.0561 | 0.0585 | – | – | – | – | – | – | – | – | –
2 | D137G | 0.063 | 0.0702 | 0.0553 | 0.0755 | 0.0634 | 0.0868 | 0.0533 | 0.0775 | 0.0456 | 0.0661 | 0.0645 | 0.0591 | 0.0612 | 0.0546 | 0.0515 | 0.0825 | 0.0578 | 0.058 | –
3 | L156P | 0.0502 | 0.0451 | 0.0532 | 0.0576 | 0.0459 | 0.0661 | 0.0413 | 0.0562 | 0.0439 | 0.0467 | 0.0523 | 0.0485 | 0.0637 | 0.0499 | 0.0641 | 0.0519 | – | – | –
4 | Q234E | 0.0682 | 0.0329 | 0.0497 | 0.0588 | 0.0573 | 0.113 | – | 0.0712 | – | 0.0644 | – | – | 0.05 | 0.0408 | 0.0362 | 0.0573 | – | – | –
5 | F173P | – | 0.0606 | 0.0632 | – | – | – | – | – | – | 0.0573 | 0.0585 | – | – | 0.0666 | 0.0635 | 0.0576 | 0.0578 | – | 0.0454
6 | R102L | 0.0435 | 0.0364 | 0.0403 | – | 0.0422 | 0.0561 | – | – | – | 0.0512 | 0.0436 | – | 0.0797 | 0.0428 | – | 0.0545 | – | 0.0501 | 0.0382
7 | E231Y | 0.0791 | – | 0.0712 | – | – | – | – | 0.0577 | 0.0504 | 0.0758 | – | – | 0.0622 | 0.059 | – | 0.0737 | 0.0031 | 0.0507 | 0.0696
8 | P134M | 0.036 | 0.0802 | 0.0637 | – | 0.0565 | 0.0974 | 0.0291 | – | 0.0582 | 0.0588 | 0.0813 | – | – | 0.0645 | 0.0497 | 0.065 | – | – | –
9 | P134F | 0.0559 | 0.0569 | 0.0355 | 0.0443 | 0.0787 | – | – | 0.0606 | 0.0688 | 0.072 | 0.0517 | – | – | – | – | – | – | – | –
10 | P134A | 0.0676 | – | 0.0666 | 0.0393 | – | 0.102 | – | 0.0676 | – | 0.0593 | – | – | – | – | – | 0.0777 | – | – | –
11 | T129A | 0.0228 | 0.0404 | 0.0627 | 0.06 | – | 0.0876 | – | – | 0.0679 | 0.0814 | 0.0588 | – | – | – | 0.0827 | – | – | – | –
12 | S171R | 0.0657 | 0.0479 | 0.0562 | 0.0582 | – | – | – | 0.049 | 0.0532 | 0.0636 | – | – | 0.0763 | 0.0788 | 0.0929 | – | 0.0624 | 0.0505 | –
13 | C20I | 0.0704 | 0.0671 | 0.065 | 0.0562 | 0.0312 | – | 0.0755 | 0.061 | 0.055 | 0.0533 | – | – | 0.0571 | 0.0598 | 0.0757 | 0.091 | 0.0609 | 0.0926 | –
14 | Q146Y | 0.0794 | 0.0613 | – | 0.0618 | 0.049 | – | 0.0682 | 0.0471 | – | – | – | 0.0603 | 0.0506 | 0.0605 | 0.0564 | 0.0822 | – | 0.0757 | –
15 | R109D | 0.0684 | – | 0.0609 | 0.0569 | 0.0766 | – | – | 0.0625 | – | 0.0623 | – | – | 0.0705 | 0.0674 | – | 0.0697 | – | – | –
16 | R109M | 0.06 | 0.055 | – | 0.0803 | 0.0671 | – | – | 0.0804 | 0.0703 | 0.068 | – | – | 0.0473 | 0.0606 | – | – | – | – | –
17 | L56N | 0.0478 | 0.04 | – | – | – | 0.0531 | – | 0.0337 | 0.0509 | 0.0388 | 0.055 | 0.0373 | 0.0415 | 0.03 | 0.0486 | 0.0598 | – | – | –
18 | I145S | 0.0663 | 0.0888 | – | 0.0657 | 0.0619 | – | 0.0951 | – | 0.0647 | 0.0737 | 0.0653 | – | – | 0.0719 | 0.0613 | 0.0865 | 0.0903 | 0.0559 | –
19 | G136I | 0.0745 | 0.0555 | 0.063 | – | 0.0673 | – | – | – | – | 0.0617 | – | 0.0662 | – | 0.062 | – | – | – | – | –
20 | S127R | 0.0374 | – | 0.0922 | – | 0.0579 | 0.107 | – | – | 0.0528 | 0.07 | 0.0689 | 0.0165 | 0.0602 | 0.061 | 0.0798 | 0.0963 | – | – | –
21 | I86M | 0.0655 | 0.054 | – | 0.0577 | 0.0628 | – | – | 0.0586 | – | 0.0526 | 0.0651 | – | 0.0471 | – | 0.129 | 0.0568 | – | – | –
22 | I84L | 0.0663 | 0.053 | – | 0.0632 | 0.0687 | 0.0998 | 0.0927 | 0.0261 | 0.0713 | 0.063 | 0.0684 | 0.0728 | 0.0703 | 0.0625 | – | – | 0.0572 | 0.0336 | –
23 | A207F | 0.0679 | 0.0651 | – | 0.0499 | 0.0503 | – | 0.0654 | – | 0.0729 | 0.065 | 0.0643 | – | – | 0.0388 | 0.0637 | – | 0.0056 | – | –
24 | N53P | 0.0473 | 0.0622 | 0.0555 | 0.0509 | – | 0.0896 | 0.0658 | – | 0.0581 | 0.0673 | 0.0607 | 0.0314 | – | 0.0643 | 0.0577 | – | – | 0.0642 | –
25 | G214H | 0.0789 | 0.0619 | – | 0.0565 | – | 0.0653 | – | – | 0.0499 | 0.0664 | 0.0618 | – | 0.0732 | – | – | 0.0688 | – | – | –
26 | S158Q | 0.0757 | 0.0532 | 0.0391 | – | 0.0363 | – | 0.0424 | – | – | – | – | – | – | 0.0575 | 0.0563 | 0.0515 | – | – | –
27 | P96D | 0.0663 | 0.0621 | – | – | – | – | – | 0.0601 | – | 0.143 | 0.0526 | 0.0535 | – | 0.0567 | 0.0404 | 0.085 | – | – | –
28 | T55W | 0.0576 | 0.0496 | 0.0518 | 0.0702 | 0.0644 | 0.109 | 0.0739 | 0.0549 | 0.0477 | 0.0555 | – | 0.0469 | 0.0542 | 0.0512 | 0.067 | 0.0772 | 0.0043 | 0.0862 | 0.0415
29 | T55P | 0.0463 | 0.0518 | 0.0595 | – | 0.05 | – | – | 0.0573 | – | 0.0511 | – | – | 0.0641 | 0.0605 | 0.0501 | 0.0557 | 0.0611 | 0.0458 | –
30 | P155T | 0.0537 | 0.0524 | 0.0728 | 0.0592 | 0.0532 | – | – | – | 0.0608 | 0.0643 | – | – | – | 0.0568 | – | – | – | – | –
